Among all 45,000 compounds or so, about 200 (0.44%) were called active. About 7% were inconclusive and are not listed. The call rests on the fitted dose curve; in most records, active means well fitted activation curve with a large enough effect; inconclusive means small, poorly fitted or top-dose-only effect; inactive means no such curve, though single readings can be large or run the other way. The list shows a part of the results.

Experimental findings from PubChem BioAssay AID1347073 (National Center for Advancing Translational Sciences (NCATS), 2019) are described below.

The assay in a line: qHTS of TDP-43 Inhibitors: NCGC Sytravon Library Screen. Further: 0% is about no effect; nearly all actives have a fitted effect of over 55% in size. The following applies: yeast TDP-43 toxicity rescue, BacTiter-Glo growth, 24 h; series mostly up to 46.1 µM; growth rescue (activation): at the top concentration. An excerpt: The goal of this project is to identify new chemical probes capable of reversing the toxicity associated with TDP-43 which is associated with frontotemporal lobar degeneration and amyotrophic lateral sclerosis. These compounds will provide a complementary approach to deciphering the tangled mechanisms of toxicity and protection that we have uncovered through genome-wide genetic screens and are beginning to uncover in a large-scale proteomics analysis with mass spectroscopy. To this end, a miniaturized assay was developed to be screened against the Molecular Libraries Small Molecule Repository (MLSMR) to discover TDP-43 inhibitors. Please note that in the set-up this yeast-based assay compounds that inhibit as TDP-43, have a read-out as activators. NIH Chemical Genomics Center [NCGC] NIH Molecular Libraries Probe Centers Network [MLPCN] Assay Submitter (PI): Susan Lindquist, Whitehead Institute/MIT MLPCN Grant: R21 NS060957
Dispense 2.5 microL yeast galactose medium per 1536-well plate, pin compound, dispense 2.5 microL TDP-43 expressing yeast in galactose medium at OD600=0.02 (pregrown in raffinose medium to mid-log phase) per well, incubate for 24 hr at 30 deg C, and cell growth will be measured using 5 microL of Bactiter/Glo reagent to entire plate and read using Luminescence Protocol in ViewLux.
As to `CCN1CCC(CNCc2cn(-c3ccc(OC)cc3)nc2-c2ccccc2Cl)C1` (stereo not drawn), the “growth rescue (activation)” value is inactive: -5.05%. Consider `C/C(=N\Nc1c(Cl)c(Cl)nc(C(=O)O)c1Cl)c1ccc(O)cc1`, for which the “growth rescue (activation)” value is inactive: -2.85%. In the case of `COc1cc(S(=O)(=O)N2CCC(N3CCCCC3)CC2)ccc1-n1cnnn1` it was inactive: 6.09%; in that of `COc1ccc(-c2[nH]ncc2CN(CC2CCC(=O)N2)C(C)C)cc1F` (stereo not drawn), inactive: 4.92%; in that of `Cc1cc(NC(=O)COC(=O)[C@@H]2CCCN2C(=O)c2cccs2)no1`, inactive: 9.61%. As for `CCC(=O)NCCNc1nc2cc(C)cc(C)c2cc1C#N`, the figure is inactive: 9.74%; as for `O=C(O)CSc1nnc(CSc2nc3ccccc3s2)n1-c1ccccc1`, inactive: -9.5%; as for `CC(=O)N1c2c(cc(Br)cc2S(=O)(=O)NCc2ccccc2)CC1C` (stereo not drawn), inactive: 1.39%.

As to `CSc1cccc(CNC(=O)CC2C(=O)NCCN2CC(C)(C)C)c1` (stereo not drawn), the “growth rescue (activation)” value is inactive: -4.2%. As for `CCCSc1ncc(Cl)c(C(=O)Nc2c(C(=O)c3ccc(F)cc3)oc3ccccc23)n1`, the figure is inactive: 8.56%; as for `Cc1cccc(NC(=O)c2cc(Cl)nc3ccccc23)c1`, inactive: 27.1%. In the case of `O=C(O)c1ccccc1CSc1nnnn1-c1ccccc1` it was inactive: 3.14%. In the case of `Cc1ccc(-n2c(C)cc(/C=C3/C(=N)N4C(c5ccccc5)=CSC4=NC3=O)c2C)cc1` it was inactive: 5.36%; in that of `Cc1c(C#N)c(O)[nH]c(=O)c1N=Nc1ccc(Br)cc1C(=O)O`, inactive: 14.8%. Turning to `Cc1ccc(-c2nnc(COC(=O)c3cc(=O)[nH]c4ccccc34)o2)cc1`, the “growth rescue (activation)” value was inactive: 5.88%.

As to `COc1ccc(C(=O)NNC2=CC(=O)CC(C)(C)C2)cc1OC`, the “growth rescue (activation)” value was inactive: 11%. As for `COc1ccc(C(C)C)cc1S(=O)(=O)N1CCC(C(=O)NCC2CCCO2)CC1` (stereo not drawn), the figure is inactive: 19.3%; as for `O=C(NCc1ccco1)C1CCCN1C(=O)Nc1ccc(Cl)cc1` (stereo not drawn), inactive: -21.5%. On to `COc1ccc(Cl)cc1C(=O)Nc1ccc(CN2CCCCC2)cc1`, for which the “growth rescue (activation)” value was inactive: 0.654%. In the case of `COc1ccc(CNC(=O)c2cccc(S(=O)(=O)N3CCN(c4ccc(F)cc4)CC3)c2)cc1` it was inactive: -8.02%; in that of `CN(C)/C=C/C(=O)c1ccncc1`, inactive: 5.83%; in that of `O=C1NCCCC1C(=O)N1CCCCC1` (stereo not drawn), inactive: 2.03%.

As for `COc1cc(/C=C2\SC(=S)N(CC(=O)Nc3ccccn3)C2=O)cc(OC)c1OC`, the “growth rescue (activation)” value was inactive: 19.6%. With `O=C(C1CC(=O)N(c2ccc(F)cc2)C1)N1CCOCC1` (stereo not drawn), the “growth rescue (activation)” value was inactive: 3.27%. For `COc1ccc(/C=C(/C#N)C(=O)Nc2cccc([N+](=O)[O-])c2)cc1C(=O)O`, the “growth rescue (activation)” value was inactive: 1.03%. In the case of `CCc1ccccc1NC(=O)Cc1ccc(-n2cccc2)cc1` it was inactive: 23.9%; in that of `Cc1c(C)n(-c2ccc(Cl)cc2)c2ncnc(N)c12`, inactive: -4.63%; in that of `CCc1nc2c(OCc3ccc(C(=O)N(C)C)cc3)cccn2c1N(C)C(=O)c1ccc(C)cc1`, inactive: 7.05%. As for `COc1ccc(S(=O)(=O)N2CCC(C(=O)NCc3ccncc3)CC2)cc1C`, the figure is inactive: -13.1%.

`COCCN1C(=O)C(=O)/C(=C(/O)c2ccc(S(=O)(=O)N3CCOCC3)cc2)C1c1cccc(Cl)c1` (stereo not drawn): the “growth rescue (activation)” value was inactive: -9.45%. As for `CC(CCc1ccccc1)NC(=O)C(Cc1ccccc1)NC(N)=O` (stereo not drawn), the figure is inactive: -12.7%.

For the compound `CCOCCCNC(=O)c1cc2c(=O)[nH]c3ccccc3c2s1`, the “growth rescue (activation)” value was inactive: -3.92%. As for `O=C(OCc1ccccc1F)c1cnc(Cl)c(Cl)c1`, the figure is inactive: 15.4%; as for `O=C(c1ccccc1)N1N=C(c2ccccc2)CC1c1cccs1` (stereo not drawn), inactive: 3.95%. With `CCC1(CC)NC(=O)N(CC(=O)N2CCc3ccccc32)C1=O`, the “growth rescue (activation)” value was inactive: -11.2%. For `COc1cc(/C=N/N2C(=O)C3C4C=CC(CC4)C3C2=O)ccc1O` (stereo not drawn), the “growth rescue (activation)” value is inactive: -12.8%. `CC(C)CCNC(=O)c1sc2ccc(S(=O)(=O)N3CCCCC3)cc2c1N`: the “growth rescue (activation)” value was inactive: 13.6%. As for `N#Cc1ccc(-c2ccc3nccn3c2)cc1`, the figure is inactive: 6.86%; as for `COc1cc(/C=N/NC(=O)c2ccc(-n3cccc3)cc2)ccc1O`, inactive: 15.8%. As for `CCOc1ccc(C(O)(CCC(C)C)C(CN2CCOCC2)c2ccccc2)cc1` (stereo not drawn), the “growth rescue (activation)” value is inactive: 9.02%.

On to `COc1cc(CNCCc2ccccc2)cc(Cl)c1OCc1ccccc1`, for which the “growth rescue (activation)” value was inactive: 8.79%.

With `COc1ccc(N=Cc2cc(Cl)ccc2O)cc1Cl`, the “growth rescue (activation)” value was inactive: 2.04%.

`CCCc1cc(=O)[nH]c(SCC(=O)Nc2nc3ccc(OCC)cc3s2)n1`: the “growth rescue (activation)” value is inactive: -3.21%. In the case of `CC(C)c1ccc(NC(=S)NCCc2c[nH]c3ccccc23)cc1` it was inactive: 29.8%; in that of `Cc1ccc(Cl)cc1NC(=O)N1CCc2cc(S(=O)(=O)N3CCC(C)CC3)ccc21`, inactive: -5.71%; in that of `CCOc1ccc(NC(=O)C(=O)NCCN2CCN(C(=O)c3ccc(C)cc3)CC2)cc1`, inactive: 15.5%. For the compound `O=C(CSc1nnc(CSc2nc3ccccc3s2)o1)NC1CCCCC1`, the “growth rescue (activation)” value is inactive: -1.57%.

As to `CCOC(=O)N1CCN(C(=O)CCC2CCCC2)CC1`, the “growth rescue (activation)” value is inactive: 7.36%. As for `CN(Cc1cccc(F)c1)C(=O)CNS(=O)(=O)c1ccc2ccccc2c1`, the figure is inactive: 7.8%; as for `COc1ccc(C(=O)Nc2ccc3c(c2)OCCO3)cc1[N+](=O)[O-]`, inactive: 7.57%; as for `O=C(Nc1ccc(NC(=O)c2ccccc2Cl)nc1)c1ccco1`, inactive: -6.63%. With `Cc1ccc(/C=N/NC(=O)c2ccoc2C)s1`, the “growth rescue (activation)” value was inactive: 12.1%. On to `CC(Sc1nnc(NCc2ccccc2)s1)C(=O)Nc1ccc2c(c1)C(=O)c1ccccc1C2=O` (stereo not drawn), for which the “growth rescue (activation)” value was inactive: 20.1%.
